In assay [1] the test system is HSkMC (human skeletal muscle cells). Nature of the assay: cytotoxicity call (relative viability < 0.9). To be noted: 10 µM.
Assay [2] relates to HepG2. Nature of the assay: cytotoxicity call (relative viability < 0.9). The settings on record: 10 µM.
The test system of assay [3] is S. aureus RN4220. Nature of the assay: growth inhibition call (relative growth <= 0.2). The settings on record: 50 µM.

The list shows a part of the results.

`CO[C@@H]1CN(C)C(=O)c2cc(NC(=O)c3ccccc3)ccc2OC[C@@H](C)N(C(=O)CN(C)C)C[C@@H]1C`: the cytotoxicity call in assay [1] and in assay [2] was “inactive” in each case. Besides, the growth inhibition call in assay [3] was “inactive”.

As to `Cc1ccc(S(=O)(=O)Nc2cccc3c2O[C@H](CN(C)S(C)(=O)=O)[C@@H](C)CN([C@H](C)CO)C3=O)cc1`, the cytotoxicity call in assay [1] and in assay [2] was “inactive” in each case. Also, the growth inhibition call in assay [3] is “inactive”.

As for `CC(C)(C)OC(=O)C[C@H]1C/C=C/CC[C@H](Cc2ccc(F)cc2)C(=O)O[C@H](c2ccccc2)CNC1=O`, the cytotoxicity call in assay [1] and in assay [2] was “inactive” in each case. Moreover, the growth inhibition call in assay [3] is “inactive”.

Regarding `C[C@@H]1CN([C@@H](C)CO)C(=O)c2cccc(NC(=O)c3nc4ccccc4s3)c2O[C@@H]1CN(C)S(C)(=O)=O`, the cytotoxicity call in assay [1] and in assay [2] was “inactive” each time. Besides, the growth inhibition call in assay [3] was “inactive”.

Regarding `NC1=NCCN1CC(=O)O`, the cytotoxicity call in assay [1] was “inactive”. For the same molecule, the cytotoxicity call in assay [2] was “active”. Moreover, in assay [3], the growth inhibition call was “inactive”.

As for `O=C(C[C@@H]1CC[C@@H]2[C@H](COC[C@H](O)CN2S(=O)(=O)c2ccccc2)O1)N1CCc2ccccc2C1`, the cytotoxicity call in assay [1] and in assay [2] was “inactive” throughout. Further, the growth inhibition call in assay [3] was “inactive”.

As to `CN1C(=O)c2cc(NS(=O)(=O)c3cccc(F)c3)ccc2OC[C@@H]2O[C@@H](CC(=O)NCCN3CCCCC3)CC[C@H]21`, the cytotoxicity call in assay [1] and in assay [2] was “inactive” in each case. The growth inhibition call in assay [3] was “inactive”.

On to `C[C@H]1CN([C@@H](C)CO)C(=O)Cc2cc(NC(=O)Nc3ccccc3)ccc2O[C@H]1CN(C)Cc1ccc(-c2ccccc2)cc1`, for which the cytotoxicity call in assay [1] and in assay [2] was “inactive” throughout. For the same molecule, the growth inhibition call in assay [3] is “inactive”.

Regarding `c1ccc(CCN2CCNCC2)nc1`, the cytotoxicity call in assay [1] and in assay [2] was “inactive” each time. For the same molecule, the growth inhibition call in assay [3] is “inactive”.

As to `CCC(=O)N1C[C@]2(CN(C2)S(=O)(=O)C)c2c(n(c3cc(ccc23)OC)C)[C@@H]1CO`, the cytotoxicity call in assay [1] and in assay [2] was “inactive” throughout. For the same molecule, in assay [3], the growth inhibition call was “inactive”.

`Cn1cc(N2C[C@]3(COCCN(C(=O)C4CC4)C3)OCC2=O)cn1`: the cytotoxicity call in assay [1] and in assay [2] was “inactive” throughout. The growth inhibition call in assay [3] is “inactive”.
